In all, about 33,000 sequences were measured (“E-score (-0.5 to 0.5)”: median about -0.036, highest 2% from about 0.37 on). The list shows a part of the results.

For this assay, the target named is T1, Yer064c (UniProt P40041).
T1 sequence: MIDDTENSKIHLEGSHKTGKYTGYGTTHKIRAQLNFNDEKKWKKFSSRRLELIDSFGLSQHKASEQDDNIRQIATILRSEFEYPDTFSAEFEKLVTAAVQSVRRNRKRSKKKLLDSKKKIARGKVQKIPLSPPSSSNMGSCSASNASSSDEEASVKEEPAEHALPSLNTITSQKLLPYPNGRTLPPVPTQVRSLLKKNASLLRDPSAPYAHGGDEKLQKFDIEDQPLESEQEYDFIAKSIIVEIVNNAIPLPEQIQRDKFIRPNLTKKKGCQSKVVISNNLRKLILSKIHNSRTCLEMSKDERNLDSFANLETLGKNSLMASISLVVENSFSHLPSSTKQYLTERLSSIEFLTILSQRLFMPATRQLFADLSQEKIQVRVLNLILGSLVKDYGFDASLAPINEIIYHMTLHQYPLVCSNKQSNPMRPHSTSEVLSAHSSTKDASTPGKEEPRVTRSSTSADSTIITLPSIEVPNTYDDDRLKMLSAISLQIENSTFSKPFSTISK
Kind of assay: PBM E-score (8-mer binding enrichment) (E-score (-0.5 to 0.5)); higher = stronger / more preferred TF binding; most listed sequences are background and not binding sites. To be noted: protein concentration: 200 nM; construct: GST-full length. In short, it runs like this: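 For each ungapped eight-base word taken together with its reverse complement, the Universal PBM Analysis Suite assigned an E-score. Binding data came from GST-tagged yeast transcription factors, applied at about 100-200 nM, on universal all-10-mer Agilent arrays made double-stranded by primer extension. Fluorescent anti-GST marked bound protein, and scans were normalised with masliner.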
As for AATCTAGC, the “PBM E-score” value is -0.132.
CACAGACC: the “PBM E-score” value is 0.173.
As to CAAGCAGG, the “PBM E-score” value was -0.138.
Under AATCTGAA stands 0.17; under ACGGCCAA, -0.179; under AGCAACTC, -0.277.
The value for CGTCTCGC was -0.19; that for ATCAGACC was 0.0458.
The value for GGAAGTCC was 0.0559; that for GATGTAGC was -0.221; that for AATGAGCT was -0.0581.
ATCGCAAC: the “PBM E-score” value is -0.0402.
Take AATATGCA: the “PBM E-score” value is 0.0901.
The value for ACCTCTTA was 0.00063; that for AAAGGCTC was -0.123.
Under TCTCACAA stands 0.166.
Under CTGATTCA stands 0.45; under GACTATCA, 0.394.
Regarding CGTCGATA, the “PBM E-score” value was -0.16.
Under ATCAAAAC stands 0.103; under CAGTTGGA, -0.0163.
Under GAAGAGTC stands 0.426.
With CCCTGATA, the “PBM E-score” value is -0.166.
The value for ACGGATGG was 0.0552; that for ATGTTAAA was 0.0628.
The value for CATTGCCC was -0.139; that for AGTAATCC was 0.0831.
Under AGGGCGAG stands -0.0576; under GCCTCATA, -0.152.
Turning to ACGAGGGC, the “PBM E-score” value is -0.252.
The value for ACTGGTCG was -0.0181; that for GACAGCAA was -0.152; that for CGGTAAAG was -0.0796.
The value for GATCGCAC was -0.0638; that for ACTCAAGC was 0.259.
Take ACGATCTA: the “PBM E-score” value is -0.0776.
For the sequence CTGGACCC, the “PBM E-score” value is -0.199.
The value for AGCGATTC was 0.247; that for AGAGGCCC was -0.147; that for ATTTTATC was -0.11.
The value for GAGGTTAA was 0.12.
The value for GCCAACCC was -0.343; that for AAATACGA was -0.0358.
Consider ACGCTACC, for which the “PBM E-score” value was -0.186.
Under ACTCCTTG stands 0.197; under AGTGAACG, -0.108; under CCATAGTA, 0.0975.
Under CTGCTACC stands -0.0659; under ATTCTCGA, 0.162.
Under GCTTAGTA stands 0.0649; under CAATTACC, -0.166; under ATCGTGAC, 0.212.
As to CTTCGGTC, the “PBM E-score” value came out at 0.0776.
Under ATCTAAAT stands 0.214.
With CTTTCGCA, the “PBM E-score” value was -0.0641.
With AACTAAAC, the “PBM E-score” value is -0.0459.
The value for CGCCGGAG was -0.202; that for CAGGAGGC was 0.0039.
The value for GCCATCGA was -0.0186; that for CGGCAAAA was -0.235.
In the case of CACGAGGC, the “PBM E-score” value was determined as 0.0104.
For ACGAGGCA, the “PBM E-score” value was -0.21.
Take CAAGGTAG: the “PBM E-score” value was -0.118.
Under GGGGTCCA stands -0.261; under GCAAAAGC, -0.037; under CGGTCGTA, -0.192.
Take AAGCAATT: the “PBM E-score” value came to 0.102.
In the case of AGATGTGA, the “PBM E-score” value is 0.0875.
Consider GCATTTTA, for which the “PBM E-score” value is -0.135.
The value for TATGAAGA was 0.13; that for CGTGTGAG was 0.177.
CATCGACC: the “PBM E-score” value was -0.0742.
Take ACGGCACT: the “PBM E-score” value is -0.168.
The value for AAAACTCA was 0.143; that for GAATGATA was 0.0116; that for CCGTCCTA was -0.149.
Turning to ACAGCTAT, the “PBM E-score” value is -0.0482.
In the case of GCTGTTAA, the “PBM E-score” value came to 0.0119.
Under CAGTGACG stands -0.0709; under ACGCGTTG, -0.141.
The value for ATCGGGTA was -0.0263.
As for TACATCGA, the “PBM E-score” value was -0.0874.
The value for CTTACGCC was -0.16; that for AGGAATCC was -0.0672.
For CCAGTTCG, the “PBM E-score” value was -0.128.
The value for CAGGCCCA was -0.256; that for GCCTAAAA was 0.0466.
On to CCTGCGCA, for which the “PBM E-score” value was -0.352.
The value for GTACCAAC was -0.0957.
Regarding ATCGAAAC, the “PBM E-score” value was -0.0975.
Under ACGCTGAC stands 0.211; under CATAAGAG, 0.01; under AGAAGCTC, -0.102.
Consider AACGGTGG, for which the “PBM E-score” value is -0.143.

The values above are taken from the supplement of paper PMC3334620.
